Test results as given in patent US11191722B2, “Treatment of diabetes mellitus by long-acting formulations of insulins” (SANOFI, priority 2013, dated 2021).

Tested on: patients with type 2 diabetes mellitus
Details: in vivo

Substance | HLT: Influenza viral infections
insulin glargine [HOE901-U300] | 8 (2.0%) n (%)
insulin glargine [Lantus] | 9 (2.2%) n (%)
